Screen size: about 71,000 compounds; about 1,800 (2.5%) were called active. Inconclusive results, whose numbers are uncertain, are shown with a selection of clear calls. Calls follow the shape of the dose curve; as a rule, active = well fitted activation curve with a large enough effect in the signal ratio, with a control signal flat (not every such curve was filed as active); inconclusive = small, poorly fitted or top-dose-only effect, or effect the other way, or a change in a side signal; inactive = flat fitted curve, though single readings scatter; the % refers to the signal ratio. Potencies beside an inconclusive call are fits to weak or partial responses and may not hold up.
Assay: Cell signaling CRE-BLA (Fsk stim); as to activity change, negative = inhibition: % of control where 0% means no effect
Conditions: CHO CRE-bla reporter (cAMP response element driving beta-lactamase), forskolin EC10, beta-lactamase ratio; activity change, negative = inhibition: at 38.2 µM (top of the series) unless noted
How it was run: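 Beta-lactamase reporter under a cAMP responsive element in CHO cells; compounds tested in titration series against EC10 NKH 477, 3 h at 37 °C. Read-out: CCF4 FRET ratio 460nm/530nm (excitation 405nm) giving %Activity, fitted to AC50.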
Potency is read from the fitted curve at half-maximal effect; tags tell the direction and shape of the fitted curve.

Structure (SMILES)	activity change, negative = inhibition	Potency
Cc1cc(C)c(NC(=O)CSc2nnc(-c3ccco3)n2N)c(C)c1	inconclusive: -0.883%	
CC(=O)Nc1ccc(NC(=O)c2ccccc2F)cc1		inconclusive: 2 µM [falling, partial curve]
CCN1CCN(C(c2cccs2)C(C)NS(=O)(=O)c2ccc(Br)cc2)CC1 (configuration not stated)		inconclusive: 25.1 µM [falling, single point]
CCOc1ccc(CCNC(=O)C(CC)n2nc(C)n3c(cc4sccc43)c2=O)cc1OCC (configuration not stated)	inconclusive: 11.6%	
O=C(CSCCc1ccccn1)Nc1cccnc1	inconclusive: -16.2%	
CC(C)Cn1c(-c2cccs2)nc2nc3ccccc3nc21		active: 12.6 µM
COC(=O)c1c(C)[nH]c(C(C)=O)c1C		inconclusive: 12.6 µM [rising, partial curve, poor fit]
O=C(CCSc1ccc(F)cc1)Nc1ccc(-n2cnnn2)cc1		inconclusive: 5.01 µM [falling, single point]
Cn1c(-c2ccc3c(c2)OCO3)cnc1N		inactive
Cc1ccc2cc(CN(Cc3ccccc3)Cc3nnnn3C3CCCC3)c(=O)[nH]c2c1		inactive
C=CCn1c(C(C)NC(=O)CC)nc2ccccc21 (configuration not stated)		inactive
COc1ccc(C2C(=O)N(CCc3ccccc3)CC(=O)N2C2CCCC2)cc1 (configuration not stated)		inconclusive: 6.31 µM [falling, partial curve, poor fit]
CS(=O)(=O)N1CCC2(CCCN(C(=O)Nc3cccc(C#N)c3)C2)CC1		inactive
Cc1cc(NCc2ccco2)nc2cc(O)ccc12		inconclusive: 12.6 µM [rising, single point]
CCOC(=O)N1CCN(C(=O)c2ccc3nc4ccc(Cl)cc4c(=O)n3c2)CC1		active: 0.0501 µM
CN1CCN(C(=O)c2cc(-c3ccc(O)cc3)on2)CC1		inactive
Cc1ccc(S(=O)(=O)N2CCN(C(=O)C3CCCCC3)CC2)cc1	inconclusive: -22.7%	
O=C1C(=O)N(Cc2ccc(Cl)c(Cl)c2)c2ccccc21		inconclusive: 20 µM [rising, partial curve, poor fit]
CCn1c(C(=O)OC)cc2c1ccn2-c1ccc(F)cc1		inconclusive: 15.8 µM [rising, single point]
Cc1cc(Nc2ccc(Br)cc2F)n2nc(C)nc2n1		inconclusive: 10 µM [rising, partial curve]
CCN(CC)S(=O)(=O)c1cc(C)c(C)cc1Br	inconclusive: -2.68%	
COCCn1c(SCc2nnc(-c3ccccc3)o2)nc2sc3c(c2c1=O)CCC3		inconclusive: 3.16 µM [rising, single point]
CN1C(=O)c2cccc(NCCCN3C(=O)c4ccccc4C3=O)c2C1=O	inconclusive: 5.87% [fluorescent]	
CCCn1c(C)nc2c(N(CCN(CC)CC)CCN(CC)CC)nc(C)nc21		inactive
Cc1nnc(SCc2nc3ccccc3s2)n1-c1ccccc1		inconclusive: 12.6 µM [rising, single point]
CCN1CCN(CNC(=O)c2cnccn2)CC1		inconclusive: 5.01 µM [falling, single point]

Structure (SMILES)	activity change, negative = inhibition	Potency
O=C(Nc1ccc2c(c1)OCO2)c1ccc(Br)c(S(=O)(=O)N2CCCC2)c1	inconclusive: 22.4%	
C[C@@H]1C(=O)O[C@@H]2C[C@]34[C@H]5C[C@@H](C(C)(C)C)[C@@]36[C@@H](OC(=O)[C@@H]6O)O[C@@]4(C(=O)O5)[C@@]12O		inactive
CC(C)Nc1nc(NC(C)C)nc(N(C)C#N)n1		active: 12.6 µM
COc1ccc(CCn2c(-c3ccco3)nc3nc4ccccc4nc32)cc1OC		inconclusive: 7.94 µM [rising, partial curve]
CC(C)CNc1nc(N)[nH]c(=O)c1NC=O	inactive: 3.06% [at 7.6 µM]	
Cc1ccc(NS(=O)(=O)c2ccc(C)c(C(=O)N3CCN(C)CC3)c2)cc1	inconclusive: 4.96%	
COc1ccc(Cl)cc1NC(=O)N1CCN(C2CCCCC2)CC1		inactive
Cc1cc2c(cc1C)-c1nnnn1C(C)(C)C2		inconclusive: 25.1 µM [rising, single point]
O=S1(=O)c2cccc3cccc(c23)N1Cc1nnc(-c2ccccc2Br)o1		active: 3.16 µM
O=C(Cn1c(=O)sc2ccccc21)N1CCOCC1		inconclusive: 1 µM [falling, single point]
CCOC(=O)C1CCN(c2c(NCCCN(CC)Cc3ccccc3)c(=O)c2=O)CC1	inconclusive: 23.4%	
O=C(CSc1ncccn1)Nn1cnnc1	inconclusive: 20.6%	
CCN(CC)S(=O)(=O)c1cc(C(=O)Nc2ccccn2)ccc1C	inconclusive: 15.6%	
CCC(=O)Nc1cccc(NC(=O)CSc2nnc(C(C)C)n2CC)c1		inconclusive: 3.16 µM [rising, single point]
Cn1c(=O)c2c(ncn2CC(=O)Nc2cc(Cl)c(Cl)cc2Cl)n(C)c1=O		inactive
Cc1cc2c(c(=O)n1CC1CCCO1)C(c1ccco1)C(C#N)=C(N)O2 (configuration not stated)	inconclusive: -13.7%	
CCOC(=O)c1cc(-c2ccc(Cl)s2)nc2c1c(C)nn2C	inconclusive: 17.2%	
COc1ccc(C(c2nnnn2CC2CCCO2)N2CCN(c3cccc(C)c3C)CC2)cc1 (configuration not stated)		inactive
CC(=O)c1ccccc1OCCn1nnc(-c2ccc(C)cc2)n1		inconclusive: 10 µM [rising, single point]
CN(C)c1[nH]c(=O)c(C#N)c2c1CCN2Cc1ccccc1		inconclusive: 10 µM [rising, single point]
CS(=O)(=O)Nc1ccccc1C(=O)NC1CC2CCC1C2 (configuration not stated)		inactive
O=C(NCCN1CCN(c2ccccc2)CC1)c1cccn2c(=O)c3cc(Cl)ccc3nc12	inconclusive: -12.4%	
CCCCC(=O)Nc1ccc(N2CCN(C(=O)CC)CC2)cc1		inactive
CC(C)(C)NC(=O)COc1ccc(CNn2nnnc2N)cc1		inactive
O=C1c2ccccc2C(=O)N1CCCc1nc(-c2cccnc2)no1		inactive
Cc1cc(C(=O)CSc2nnnn2-c2ccc(O)cc2)c(C)n1Cc1ccc2c(c1)OCO2	inconclusive: 18.1%	
